This is an account of results in PubChem BioAssay AID485344 (National Center for Advancing Translational Sciences (NCATS), 2010).

Each structure is given as a SMILES string. In all, about 340,000 compounds went through this assay and about 6,900 (2%) were called active. Rule as the data show it: active = inhibition above about 30%; inactive = below that, where a call was filed. This is a selection; strong and weak results do not stand in their true shares. Entries without a call were filed so in the source.

The assay concerns the target D(2) dopamine receptor (Homo sapiens) (UniProt P14416). The assay can be described thus: HTS Assay for Allosteric Antagonists of the Human D2 Dopamine Receptor: Primary Screen for Antagonists. Also: 0% is about no effect. Particulars: HEK293 TREx D2 cells, calcium flux, dopamine EC80; at 10 µM; stronger effect = higher value. The procedure, abridged: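 Inhibition of EC80 dopamine-driven calcium flux, recorded kinetically, defines activity here; cells are a tetracycline-induced HEK293 T-REx line expressing force-coupled D2.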
UniProt P14416, sequence (P14416 whole entry, looked up): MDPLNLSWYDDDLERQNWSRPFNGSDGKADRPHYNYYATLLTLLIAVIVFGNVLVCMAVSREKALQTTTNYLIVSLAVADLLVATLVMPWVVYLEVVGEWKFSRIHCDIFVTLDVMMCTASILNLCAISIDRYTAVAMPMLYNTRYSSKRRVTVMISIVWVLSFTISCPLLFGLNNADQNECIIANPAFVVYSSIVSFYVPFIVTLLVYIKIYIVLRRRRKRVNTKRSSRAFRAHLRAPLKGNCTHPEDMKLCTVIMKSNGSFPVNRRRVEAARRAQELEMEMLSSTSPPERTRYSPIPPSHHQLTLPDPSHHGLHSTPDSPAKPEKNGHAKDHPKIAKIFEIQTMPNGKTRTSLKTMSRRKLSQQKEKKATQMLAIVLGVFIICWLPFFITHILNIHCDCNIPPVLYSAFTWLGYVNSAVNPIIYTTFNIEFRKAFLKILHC
A general note: Calcium flux is commonly read through the fluorescence of an indicator in the cells.
In general, inhibition refers to the drop in the measured response relative to a control, in per cent. With `COc1cccc2cc(-c3nc4ccc(C)cc4[nH]3)c(=O)oc12`, the inhibition was found to be 26.7%.
In the case of `CC(=O)N1c2ccc(S(=O)(=O)NCC3CCC(C(=O)Nc4cccc(C)c4)CC3)cc2CC1C` (centres undefined), the inhibition was -8.88%.
Regarding `Cc1ccc(C(=O)NCc2ccccc2CN2CCCC2)cc1S(=O)(=O)N1CCOCC1`, the inhibition was active: 51.5%.
With `Cc1cc(S(=O)(=O)NCCc2csc(-c3cccc(F)c3)n2)ccc1F` the figure was 21.3%; with `Cc1ccc(NC(=O)C(=O)NCC(c2ccc3c(c2)OCO3)N2CCN(C)CC2)cc1C` (centres undefined), 26.1%; with `Cc1c(C(=O)Oc2ccc(Br)cc2)sc2ncn(Cc3ccccc3F)c(=O)c12`, -26.6%.
Regarding `COc1ccc(-c2cc(C(=O)NCc3ccc(C)cc3)c3cc(C(C)C)ccc3n2)cc1`, the inhibition was determined as 6.26%.
As for `CCN(CC)S(=O)(=O)c1ccc2c(c1)c(=O)c(C(=O)N1CCN(c3ccccc3OC)CC1)cn2C`, the inhibition is -7.78%.
Then `CC(C)CCNC(=O)Cn1cc(S(=O)(=O)Cc2ccc(F)cc2)c2ccccc21`, with 3.79%.
For the molecule `COc1cc(NC(=O)Nc2c[nH]c(=O)[nH]c2=O)cc(OC)c1OC`, the inhibition came out at 1.21%.
With `Cc1cc(C(C)(C)C)ccc1OC(=O)C1=CC=CN2CCS(=O)(=O)N=C12` the figure was active: 40.2%.
With `COc1ccc(C(=O)Nc2nc(-c3nnn(-c4cc(OC)ccc4OC)c3C)ns2)cc1`, the inhibition was -11.7%.
Take `Cc1ccc(OCc2cc(=O)n3c(-c4ccccc4)csc3n2)cc1`: the inhibition was found to be 0.866%.
Then `CCc1ccc(CNC(=O)c2cc3cc4ccc(OC)cc4nc3o2)cc1`, with -2.87%; and `CN(C(=O)CSc1nc2ccc(NC(=O)c3cccs3)cc2s1)c1ccccc1`, with 17.2%.
With `CCOc1ccc(NC(=O)CSc2nccn2C2CCCC2)cc1`, the inhibition was found to be 16.3%.
Then `Cc1ccc(CN2C(=O)CN(C3CCCCCC3)C(=O)C2c2ccc(F)cc2)cc1` (centres undefined), with 11.2%; and `COC(=O)c1cccc(CN2C(=O)SC(Nc3ccccc3C)C2=O)c1` (centres undefined), with 1.9%.
Take `CCc1ccc(CNC(=O)C2CCN(C(=O)c3ccc(-n4c(C)cc5ccccc54)s3)CC2)cc1`: the inhibition worked out at 7.57%.
Then `COc1ccc(-n2c(=O)c3c4c(sc3n(CC(=O)C(C)(C)C)c2=O)CCCC4)c(OC)c1`, with -13.3%; and `Fc1ccc(-c2nnn3c2nc(NCc2ccccc2)c2ccccc23)cc1`, with -11.6%; and `CCOc1cc(C(=O)Nc2ccc(-c3nnc4n3CCCCC4)cc2)cc(OCC)c1OCC`, with -15.1%.
For `CC(C)OCCCNC(=O)c1ccc(CN2CCc3ccccc3C2)cc1`, the inhibition is active: 44.1%.
As for `Cn1c(=O)n(C)c2cc(N3CCOCC3)c(NS(=O)(=O)c3ccc(F)cc3)cc21`, the inhibition turned out to be 6.6%.
For the molecule `O=C1CN(C(=O)c2c(F)cccc2Cl)C(c2ccc(F)cc2)c2cc(Br)ccc2N1` (centres undefined), the inhibition is -8.63%.
With `Cc1ccc2c(c1)c1c(c(=O)n(-c3ccccc3)c(=O)n1CC(=O)c1ccc(Cl)cc1)n2C` the figure was 3.89%; with `Cc1ccc(-c2ccc(CCC(=O)O)n2-c2ccc(C)c(Cl)c2)cc1`, -15.5%; with `COc1ccc(Cl)cc1C(=O)NCC(c1ccc(N(C)C)cc1)N1CCCC1` (centres undefined), -3.22%.
On to `O=C(Cn1c(-c2cccs2)cc2cc(Cl)ccc21)N1CCCCC1`, for which the inhibition came out at 4.37%.
With `Cc1ccc(C)c(NC(=O)Cn2c(=O)n(CCCS(=O)(=O)C3CCCCC3)c(=O)c3ccccc32)c1` the figure was 7.77%; with `COCCCNC(=O)CSc1nc2c(sc3ccccc32)c(=O)n1CCc1ccc(OC)c(OC)c1`, 2.79%.
On to `COc1ccccc1C(=O)NC1(C(F)(F)F)C(=O)Nc2c1c(=O)[nH]c(=O)n2-c1ccc(F)cc1` (centres undefined), for which the inhibition amounted to 14.5%.
Then `CCOc1ccccc1NC(=O)CCc1c(C)nn(-c2ccc(N3CCCCC3)nn2)c1C`, with 1.15%.
With `Cc1cccc(Cn2c(-c3cccc(Br)c3)nc3ccccc32)c1` the figure was 17.9%.
On to `CN(C)CCNC(=O)Cn1ccc2cc(S(=O)(=O)N3CCCCCC3)ccc21`, for which the inhibition was -1.45%.
On to `COc1ccc(CNC(=O)CSc2ncc3c(n2)-c2ccc(Cl)cc2N(Cc2ccccc2)S3(=O)=O)cc1`, for which the inhibition is 5.85%.
For the molecule `Cc1cc(Cl)ccc1OCC(=O)N(Cc1ccco1)Cc1ccccc1F`, the inhibition was -12.2%.
With `COc1ccc(Cl)cc1NC(=O)c1cn(C2CCCC2)c(=O)c2c1c1ccccc1n2C` the figure was -18%; with `O=C(Nc1ccc(F)cc1)c1ccc2c(=O)n3c(nc2c1)CCCCC3`, -14%; with `COc1ccc(OC)c(C2CC(=O)Oc3c2c(=O)n(C)c2ccccc32)c1` (centres undefined), 14.8%.
For `O=C(NCC(c1cccs1)S(=O)(=O)c1ccccc1)c1ccc(C(F)(F)F)cc1` (centres undefined), the inhibition worked out at 8.47%.
Take `Cc1cccc(N(CC(=O)Nc2ccccc2C(F)(F)F)S(=O)(=O)c2ccccc2)c1C`: the inhibition came out at 22%.
Take `Cc1nn2c(C)c(C(=O)NC(C)c3ccccc3)cnc2c1-c1ccc(F)cc1` (centres undefined): the inhibition was -5.26%.
`CCOc1ccc(NC(=O)Cn2cnc3sc(C)c(S(=O)(=O)N4CCN(c5ccccc5OC)CC4)c3c2=O)cc1`: the inhibition stood at 11.1%.
Then `COc1ccc(NC(=O)c2ccco2)cc1NC(=O)C(C)(C)Oc1ccc(Cl)cc1`, with 12.5%; and `CCC(=O)N1CCCc2cc(S(=O)(=O)N3CCC(C(=O)NCc4ccc(F)cc4)CC3)ccc21`, with 6.6%.
For the molecule `COc1ccc(C)cc1NC(=O)c1cc2c(=O)n3cccc(C)c3nc2s1`, the inhibition is -7.01%.
For the molecule `COc1ccc(Cl)cc1NC(=S)N1CCN(c2ccccn2)CC1`, the inhibition is active: 34.9%.
Consider `Cc1cccc(C)c1-n1ncc(C(=O)O)c1C1CCN(C(=O)OC(C)(C)C)CC1`, for which the inhibition was -4.08%.
As for `COC(=O)c1cnn(-c2ccc(C)c(C)c2)c1-n1cccc1`, the inhibition is active: 30.3%.
Then `COc1ccc(-c2noc(-c3ccc(N4CCCC4)c([N+](=O)[O-])c3)n2)cc1OC`, with 3.69%; and `CCOc1cc(C2NC(=O)c3c(sc4c3CCN(C)C4)N2)ccc1OC(=O)c1ccc(Br)cc1` (centres undefined), with 1.24%.
In the case of `Cc1ccc(C)c(Nc2nc(-c3ccncc3)nc3ccccc23)c1`, the inhibition was active: 35.8%.
With `COc1cccc(/C=C/c2nc(C#N)c(N3CCC(C(N)=O)CC3)o2)c1` the figure was 22.9%; with `Cc1ccc(C2C=C(c3ccccc3)Nc3nc(NS(=O)(=O)c4ccccc4)nn32)cc1` (centres undefined), -16.1%; with `CCOc1ccc(CCNC(=O)c2cn(-c3ccc(OC)cc3)c(=O)c3ccccc23)cc1OCC`, -8.46%.
Then `COc1ccc(Br)cc1S(=O)(=O)Nc1cc(-c2cn3ccccc3n2)ccc1C`, with 1.63%; and `COc1ccc(NC(=O)Cn2c(=O)n(CCC(=O)NCC3CCCO3)c(=O)c3cc(OC)c(OC)cc32)cc1` (centres undefined), with -4.45%; and `CN(Cc1ccccc1)C(=O)c1ccc(CSc2nc3cccnc3n2Cc2ccccc2F)cc1`, with -15.3%.
